Data published in PubChem BioAssay AID504333 (National Center for Advancing Translational Sciences (NCATS), 2011).
Out of some 360,000 compounds screened, about 16,000 (4.4%) were called active. Inconclusive means that the source gave no clear call. Such entries were picked first, then a sample of the others. Calls follow the shape of the dose curve; as a rule, active = well fitted inhibition curve with a large enough effect; inconclusive = small, poorly fitted or top-dose-only effect; inactive = no such curve, though single readings can be large or run the other way. Where the call is inconclusive, the potency comes from a doubtful curve fit.

Each compound was assayed against Bromodomain adjacent to zinc finger domain protein 2B (Homo sapiens) (UniProt Q9UIF8) (assay: qHTS Assay for Inhibitors of BAZ2B). Conditions: AlphaScreen BAZ2B-H3K14Ac peptide displacement; activity change, negative = inhibition: at 114 µM (top of the series).
Summary of the method: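 Protein-peptide AlphaScreen: BAZ2B 50 nM, b-H3K14Ac 50 nM, 1x PBS pH 7.4 + 0.01% Tween-20. Preincubation 30 min RT; cpd 30 min RT (top 110 uM); beads 20 min RT, light-protected.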
% is scaled to controls: 0 for no effect and ±100 for the full control effect; potency is read from the fitted curve at half-maximal effect; tags tell the direction and shape of the fitted curve.
Also: nearly all actives have a fitted effect of over 60% in size.

Sequence of UniProt Q9UIF8 (Q9UIF8 whole entry, looked up, the tested form may be a part): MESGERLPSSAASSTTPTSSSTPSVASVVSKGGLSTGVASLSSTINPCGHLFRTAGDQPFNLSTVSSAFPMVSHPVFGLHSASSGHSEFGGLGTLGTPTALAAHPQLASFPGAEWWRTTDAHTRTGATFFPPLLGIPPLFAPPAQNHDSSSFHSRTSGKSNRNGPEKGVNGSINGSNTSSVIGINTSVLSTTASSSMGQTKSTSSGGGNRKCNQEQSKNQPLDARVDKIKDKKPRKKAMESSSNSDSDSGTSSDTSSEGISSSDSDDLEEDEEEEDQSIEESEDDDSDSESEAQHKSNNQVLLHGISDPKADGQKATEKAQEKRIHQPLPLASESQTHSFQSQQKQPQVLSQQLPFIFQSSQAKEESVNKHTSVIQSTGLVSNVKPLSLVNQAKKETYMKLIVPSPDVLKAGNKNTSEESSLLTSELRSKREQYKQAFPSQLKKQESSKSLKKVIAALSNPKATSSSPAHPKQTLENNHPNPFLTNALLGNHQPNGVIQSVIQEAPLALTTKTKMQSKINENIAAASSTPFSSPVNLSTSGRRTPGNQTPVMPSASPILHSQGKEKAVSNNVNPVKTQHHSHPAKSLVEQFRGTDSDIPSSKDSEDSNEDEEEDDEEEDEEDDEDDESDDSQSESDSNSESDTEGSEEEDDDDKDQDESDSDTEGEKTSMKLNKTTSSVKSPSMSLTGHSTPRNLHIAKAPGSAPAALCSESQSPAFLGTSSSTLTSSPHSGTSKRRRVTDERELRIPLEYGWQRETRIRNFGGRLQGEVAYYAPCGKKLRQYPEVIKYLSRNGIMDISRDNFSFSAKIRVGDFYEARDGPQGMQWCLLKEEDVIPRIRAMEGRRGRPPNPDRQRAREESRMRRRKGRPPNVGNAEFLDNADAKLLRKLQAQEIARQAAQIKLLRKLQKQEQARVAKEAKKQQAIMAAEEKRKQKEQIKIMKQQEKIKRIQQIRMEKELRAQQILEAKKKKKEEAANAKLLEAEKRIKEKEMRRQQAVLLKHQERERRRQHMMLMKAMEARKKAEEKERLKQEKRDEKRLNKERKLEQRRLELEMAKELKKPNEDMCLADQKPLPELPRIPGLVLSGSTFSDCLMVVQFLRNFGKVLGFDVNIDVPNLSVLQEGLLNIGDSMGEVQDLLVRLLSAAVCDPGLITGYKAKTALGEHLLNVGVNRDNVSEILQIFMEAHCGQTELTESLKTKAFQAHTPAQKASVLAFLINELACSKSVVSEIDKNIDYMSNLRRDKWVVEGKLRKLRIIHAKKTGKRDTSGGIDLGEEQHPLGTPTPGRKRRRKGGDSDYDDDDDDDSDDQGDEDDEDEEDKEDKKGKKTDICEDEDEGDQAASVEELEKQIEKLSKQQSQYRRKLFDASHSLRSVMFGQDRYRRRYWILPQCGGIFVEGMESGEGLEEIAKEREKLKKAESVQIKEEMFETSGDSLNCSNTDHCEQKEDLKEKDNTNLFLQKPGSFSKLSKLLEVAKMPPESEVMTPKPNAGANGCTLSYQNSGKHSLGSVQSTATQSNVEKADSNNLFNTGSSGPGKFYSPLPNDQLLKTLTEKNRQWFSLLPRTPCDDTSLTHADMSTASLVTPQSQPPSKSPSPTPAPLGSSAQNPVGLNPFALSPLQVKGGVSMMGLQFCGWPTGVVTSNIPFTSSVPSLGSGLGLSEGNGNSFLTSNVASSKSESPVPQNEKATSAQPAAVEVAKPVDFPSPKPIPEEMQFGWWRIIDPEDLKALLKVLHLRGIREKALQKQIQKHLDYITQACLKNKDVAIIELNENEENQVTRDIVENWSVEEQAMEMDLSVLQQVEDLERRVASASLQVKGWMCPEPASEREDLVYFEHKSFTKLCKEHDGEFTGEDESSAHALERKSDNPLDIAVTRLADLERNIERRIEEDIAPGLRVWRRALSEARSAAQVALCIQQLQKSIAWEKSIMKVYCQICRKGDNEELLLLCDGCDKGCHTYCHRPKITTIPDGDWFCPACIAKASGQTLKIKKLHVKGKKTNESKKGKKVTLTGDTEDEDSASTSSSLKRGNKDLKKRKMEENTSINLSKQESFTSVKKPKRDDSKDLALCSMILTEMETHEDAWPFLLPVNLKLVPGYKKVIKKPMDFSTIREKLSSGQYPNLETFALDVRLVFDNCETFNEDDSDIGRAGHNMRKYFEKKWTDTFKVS

| Compound | Potency | activity change, negative = inhibition |
| --- | --- | --- |
| Cc1nn(-c2ccccc2)c(Cl)c1C1C(C#N)=C(N)Oc2c1c(C)nn2-c1ccccc1 (centres undefined) | inconclusive: 50.1 µM [inhibitor, partial curve] | – |
| Cc1c([N+](=O)[O-])cc(C(=O)Oc2ccc(Br)cc2C(=S)N2CCCCC2)cc1[N+](=O)[O-] | inconclusive: 25.1 µM [inhibitor, full curve, poor fit] | – |
| O=C(N/N=C1/CC2C=CCC12)c1ccco1 (centres undefined) | – | inactive: -28.3% |
| Cc1cccn2c(=O)c(C=C(C#N)C#N)c(N3CCN(c4ccccc4)CC3)nc12 | inconclusive: 3.98 µM [inhibitor, full curve, poor fit] | – |
| O=C(COC(=O)C1CCCCC1)Nc1ccc(N2CCCCC2)cc1 | inconclusive: 39.8 µM [inhibitor, partial curve] | – |
| CC1Cc2cc(/C(O)=C3/C(=O)C(=O)N(Cc4ccco4)C3c3cccs3)ccc2O1 (centres undefined) | inconclusive: 79.4 µM [inhibitor, single point] | – |
| Cc1ccn2c(Nc3ccc(F)cc3)c(-c3ccccn3)nc2c1 | active: 14.1 µM | – |
| CC(=O)Nc1ccc(S(=O)(=O)N2C(C)CCCC2C)cc1 (centres undefined) | – | inactive: -31.5% |
| CSc1ccc(CCNC(=O)Cn2ncc3c(=O)oc4ccccc4c32)cc1 | – | inactive: -33% |
| Cn1cccc1Cc1nnc(SCC(=O)Nc2nccs2)n1CCc1ccccc1 | inconclusive: 50.1 µM [inhibitor, partial curve] | – |
| O=C1/C(=C/c2cccc(O)c2)SC(=S)N1CC1CCCO1 (centres undefined) | – | inactive: -4.87% |
| COc1cccc(-c2ccc(NC(=O)C3CCCN(Cc4cnc(C)n4C)C3)cc2)c1 (centres undefined) | inconclusive: 44.7 µM [inhibitor, partial curve] | – |
| Cc1nnc(NC(=O)c2ccc3ccccc3c2)o1 | active: 28.2 µM | – |
| O=C(OC(c1ccccc1)c1nccc2ccccc12)c1cccc([N+](=O)[O-])c1 (centres undefined) | inconclusive: 35.5 µM [inhibitor, full curve, poor fit] | – |
| COc1ccccc1NC(=O)CCN1CCN(C)CC1 | – | inactive: 9.74% |
| COc1ccc(S(=O)(=O)NCC(c2ccc(N(C)C)cc2)N2CCc3ccccc32)cc1 (centres undefined) | inconclusive: 3.55 µM [inhibitor, full curve, poor fit] | – |
| Cc1ccnc(NCc2c(O)ccc3ccccc23)c1 | inconclusive: 89.1 µM [inhibitor, single point] | – |
| CN(C(=O)c1ccc(S(=O)(=O)N(C)C)cc1)c1ccc2ccccc2c1 | inconclusive: 89.1 µM [inhibitor, single point] | – |
| CCOc1ccc2nc(NC(=O)CSc3nc4c(c(=O)n(C)c(=O)n4C)n3C(C)C)sc2c1 | – | inactive: -2.57% |
| CC1(C)Cc2c(C#N)c(N3CCN(C(=O)c4ccccc4Cl)CC3)nc(-c3ccco3)c2CS1 | active: 39.8 µM | – |
| Cc1ccc(Nc2nc(N)c([N+](=O)[O-])c(NCc3ccco3)n2)cc1C | inconclusive: 44.7 µM [inhibitor, partial curve] | – |
| CCCOc1ccc(C2Nc3cccc4cccc(c34)N2)cc1 | inconclusive: 39.8 µM [inhibitor, partial curve] | – |

| Compound | Potency | activity change, negative = inhibition |
| --- | --- | --- |
| COc1ccc(OC)c(C(=O)c2c(C)oc3cc([N+](=O)[O-])c(O)c([N+](=O)[O-])c23)c1 | inconclusive: 50.1 µM [inhibitor, partial curve] | – |
| CCCCCCCCCCCCCCCC[n+]1ccc(C(N)=O)cc1 | – | inactive: -28% |
| COc1cc(-c2noc(CN3CCN(c4cccc(Cl)c4)CC3)n2)cc(OC)c1OC | inconclusive: 0.891 µM [inhibitor, full curve, poor fit] | – |
| CCOc1ccccc1NC(=O)N1CCN(C)c2ncccc21 | inconclusive: 50.1 µM [inhibitor, partial curve] | – |
| Nc1ccc2nc(SCC(=O)Nc3ccc(N4CCOCC4)c(Cl)c3)sc2c1 | inconclusive: 79.4 µM [inhibitor, single point] | – |
| Oc1ccc(N2CCN(C(=S)NCc3ccccc3)CC2)cc1 | inconclusive: 56.2 µM [inhibitor, partial curve] | – |
| NS(=O)(=O)c1ccc(NC(=O)c2cccc3ccccc23)cc1 | inconclusive: 89.1 µM [inhibitor, single point] | – |
| Cc1cnc(C(=O)Nc2nnc(C)s2)cn1 | inconclusive: 89.1 µM [inhibitor, single point] | – |
| CNC(=S)NCc1ccc2[nH]c3c(c2c1)CCCC3 | active: 44.7 µM | – |
| Cc1[nH]n(-c2ccccc2)c(=O)c1N=Nc1ccccc1 | active: 2.51 µM | – |
| COC(=O)C(=Nc1ccccc1)/C(C(=O)C(=O)N(C)c1ccccc1)=C(\O)c1ccc(Cl)cc1 | active: 50.1 µM | – |
| Fc1ccc(CSc2nc3ncccc3[nH]2)cc1 | – | inactive: -4.07% |
| O=c1c2cc(Br)ccc2nc2n1CCCCC2 | – | inactive: -21.2% |
| CC(=O)Nc1cccc(-c2nc3ccc(NC(C)=O)cc3[nH]2)c1 | inconclusive: 89.1 µM [inhibitor, single point] | – |
| CCCc1cc(=O)oc2cc(OCC(=O)NCCCn3ccnc3)c(Cl)cc12 | inconclusive: 70.8 µM [inhibitor, single point] | – |
| CCOc1ccc(NC2c3ccccc3C(=O)N2c2ccc(Cl)cn2)cc1 (centres undefined) | inconclusive: 44.7 µM [inhibitor, partial curve] | – |
| COc1cc(O)c(C(CCN2CCCC2)c2ccc3c(c2)OCO3)c(OC)c1 (centres undefined) | inconclusive: 70.8 µM [inhibitor, single point] | – |
| COc1ccc(-c2csc(NC(=O)CSc3ccc(Br)cc3)n2)c(OC)c1 | inconclusive: 70.8 µM [inhibitor, single point] | – |
| COc1cc(/C=N/n2c(C)n[nH]c2=S)ccc1OCc1ccccc1 | inconclusive: 44.7 µM [inhibitor, partial curve] | – |
| CC1=C(C)C(=O)C(N2CCOCC2)=CC1=O | inconclusive: 89.1 µM [inhibitor, single point] | – |
| Cc1ccc(OCC(=O)NNC(=O)Cn2c(=O)cnc3ccccc32)cc1 | inconclusive: 89.1 µM [inhibitor, single point] | – |
| COc1ccc(N2CCN(Cc3oc(CO)cc(=O)c3O)CC2)cc1 | inconclusive: 70.8 µM [inhibitor, partial curve] | – |
